Test results from paper PMC12820563, “FoxP3 forms a head-to-head dimer in vivo and stabilizes its multimerization on adjacent microsatellites”.
This is one part of the list.

Biological target: T1, MBP-FoxP1dN (Mus musculus, UniProt P58462 326-579)
T1 sequence: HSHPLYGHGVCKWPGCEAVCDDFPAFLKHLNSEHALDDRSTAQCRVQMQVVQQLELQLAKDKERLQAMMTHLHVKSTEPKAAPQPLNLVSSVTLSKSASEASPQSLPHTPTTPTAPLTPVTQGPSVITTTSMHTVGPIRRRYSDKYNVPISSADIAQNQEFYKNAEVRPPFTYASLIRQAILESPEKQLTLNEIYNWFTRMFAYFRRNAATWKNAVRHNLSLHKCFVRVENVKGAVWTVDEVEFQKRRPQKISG
Assay: PD-seq (MBP pull-down with sequencing); 20 mM Tris-HCl pH 7.5, 100 mM NaCl, 1.5 mM MgCl2, 0.4 uM protein, 0.1 uM dsDNA library, 30 min, room temperature, amylose pull-down; high values mean tight binding
Conditions: protein: recombinant; tags: His6-MBP; chain copies: 2; dsDNA, one strand shown
Method in brief: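 In Tris pH 7.5 buffer with NaCl and MgCl2, 0.4 µM His6-MBP-tagged mouse FoxP3 or FoxP1 fragment lacking the N-terminus, from E. coli, met 0.1 µM Klenow-filled double-stranded degenerate DNA library for 30 min at room temperature. Three washes on amylose resin followed capture of the complexes, then proteinase K release of DNA, PCR barcoding and Illumina sequencing. Binding is taken as pooled-replicate reads-per-million enrichment of pull-down relative to input.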

Sequence	binding signal
GATGATTGTTCTCCCAGCTGATGAATTACATATTTCGAGTAAACAAATTTTCCTAATCTTTCTGTTCAAGCGCCATCTAC	1.31 RPM ratio (pull-down/input)
GATGATTGTTCTCCCAGCTGATGAATTATCACTTTCGAGTAAACAAATTTTCCTAATCTTTCTGTTCAAGCGCCATCTAC	1.03 RPM ratio (pull-down/input)
GATGATTGTTCTCCCAGCTGATGAATTCTAACGCTCGAGTAAACAAATTTTCCTAATCTTTCTGTTCAAGCGCCATCTAC	0.98 RPM ratio (pull-down/input)
GATGATTGTTCTCCCAGCTGATGAATTCGGGTCTTCGAGTAAACAAATTTTCCTAATCTTTCTGTTCAAGCGCCATCTAC	0.811 RPM ratio (pull-down/input)
GATGATTGTTCTCCCAGCTGATGAATTAGCTTCCTCGAGTAAACAAATTTTCCTAATCTTTCTGTTCAAGCGCCATCTAC	0.821 RPM ratio (pull-down/input)
GATGATTGTTCTCCCAGCTGATGAATTGTCAATATCGAGTAAACAAATTTTCCTAATCTTTCTGTTCAAGCGCCATCTAC	2.23 RPM ratio (pull-down/input)
GATGATTGTTCTCCCAGCTGATGAATTGGGACAGTCGAGTAAACAAATTTTCCTAATCTTTCTGTTCAAGCGCCATCTAC	0.879 RPM ratio (pull-down/input)
GATGATTGTTCTCCCAGCTGATGAATTATCTCTCTCGAGTAAACAAATTTTCCTAATCTTTCTGTTCAAGCGCCATCTAC	0.93 RPM ratio (pull-down/input)
GATGATTGTTCTCCCAGCTGATGAATTGGGTCTTTCGAGTAAACAAATTTTCCTAATCTTTCTGTTCAAGCGCCATCTAC	0.834 RPM ratio (pull-down/input)
GATGATTGTTCTCCCAGCTGATGAATTCATTATGTCGAGTAAACAAATTTTCCTAATCTTTCTGTTCAAGCGCCATCTAC	0.872 RPM ratio (pull-down/input)
GATGATTGTTCTCCCAGCTGATGAATTTTTTCCATCGAGTAAACAAATTTTCCTAATCTTTCTGTTCAAGCGCCATCTAC	0.966 RPM ratio (pull-down/input)
GATGATTGTTCTCCCAGCTGATGAATTTGTACTTTCGAGTAAACAAATTTTCCTAATCTTTCTGTTCAAGCGCCATCTAC	1.17 RPM ratio (pull-down/input)
GATGATTGTTCTCCCAGCTGATGAATTACCCACCTCGAGTAAACAAATTTTCCTAATCTTTCTGTTCAAGCGCCATCTAC	0.949 RPM ratio (pull-down/input)
GATGATTGTTCTCCCAGCTGATGAATTCGTGACGTCGAGTAAACAAATTTTCCTAATCTTTCTGTTCAAGCGCCATCTAC	0.913 RPM ratio (pull-down/input)
GATGATTGTTCTCCCAGCTGATGAATTGGTCGTGTCGAGTAAACAAATTTTCCTAATCTTTCTGTTCAAGCGCCATCTAC	0.942 RPM ratio (pull-down/input)
GATGATTGTTCTCCCAGCTGATGAATTAATATGCTCGAGTAAACAAATTTTCCTAATCTTTCTGTTCAAGCGCCATCTAC	1.11 RPM ratio (pull-down/input)
GATGATTGTTCTCCCAGCTGATGAATTAAGCCCATCGAGTAAACAAATTTTCCTAATCTTTCTGTTCAAGCGCCATCTAC	0.894 RPM ratio (pull-down/input)
GATGATTGTTCTCCCAGCTGATGAATTCGTTCACTCGAGTAAACAAATTTTCCTAATCTTTCTGTTCAAGCGCCATCTAC	0.968 RPM ratio (pull-down/input)
GATGATTGTTCTCCCAGCTGATGAATTATGGCTTTCGAGTAAACAAATTTTCCTAATCTTTCTGTTCAAGCGCCATCTAC	0.964 RPM ratio (pull-down/input)
GATGATTGTTCTCCCAGCTGATGAATTTTACTCATCGAGTAAACAAATTTTCCTAATCTTTCTGTTCAAGCGCCATCTAC	0.957 RPM ratio (pull-down/input)
GATGATTGTTCTCCCAGCTGATGAATTTTAGCCATCGAGTAAACAAATTTTCCTAATCTTTCTGTTCAAGCGCCATCTAC	0.953 RPM ratio (pull-down/input)

Sequence	binding signal
GATGATTGTTCTCCCAGCTGATGAATTCGCGACGTCGAGTAAACAAATTTTCCTAATCTTTCTGTTCAAGCGCCATCTAC	0.832 RPM ratio (pull-down/input)
GATGATTGTTCTCCCAGCTGATGAATTTTTAATTTCGAGTAAACAAATTTTCCTAATCTTTCTGTTCAAGCGCCATCTAC	1.24 RPM ratio (pull-down/input)
GATGATTGTTCTCCCAGCTGATGAATTTAGATCATCGAGTAAACAAATTTTCCTAATCTTTCTGTTCAAGCGCCATCTAC	1.07 RPM ratio (pull-down/input)
GATGATTGTTCTCCCAGCTGATGAATTCGCGTTATCGAGTAAACAAATTTTCCTAATCTTTCTGTTCAAGCGCCATCTAC	1.02 RPM ratio (pull-down/input)
GATGATTGTTCTCCCAGCTGATGAATTGAACACCTCGAGTAAACAAATTTTCCTAATCTTTCTGTTCAAGCGCCATCTAC	0.851 RPM ratio (pull-down/input)
GATGATTGTTCTCCCAGCTGATGAATTGGTACGCTCGAGTAAACAAATTTTCCTAATCTTTCTGTTCAAGCGCCATCTAC	0.998 RPM ratio (pull-down/input)
GATGATTGTTCTCCCAGCTGATGAATTCCGCCACTCGAGTAAACAAATTTTCCTAATCTTTCTGTTCAAGCGCCATCTAC	0.908 RPM ratio (pull-down/input)
GATGATTGTTCTCCCAGCTGATGAATTAAGTGGATCGAGTAAACAAATTTTCCTAATCTTTCTGTTCAAGCGCCATCTAC	0.94 RPM ratio (pull-down/input)
GATGATTGTTCTCCCAGCTGATGAATTTTATTCCTCGAGTAAACAAATTTTCCTAATCTTTCTGTTCAAGCGCCATCTAC	0.973 RPM ratio (pull-down/input)
GATGATTGTTCTCCCAGCTGATGAATTTTACCGCTCGAGTAAACAAATTTTCCTAATCTTTCTGTTCAAGCGCCATCTAC	0.864 RPM ratio (pull-down/input)
GATGATTGTTCTCCCAGCTGATGAATTACGCTAGTCGAGTAAACAAATTTTCCTAATCTTTCTGTTCAAGCGCCATCTAC	1.01 RPM ratio (pull-down/input)
GATGATTGTTCTCCCAGCTGATGAATTATCAGATTCGAGTAAACAAATTTTCCTAATCTTTCTGTTCAAGCGCCATCTAC	1.01 RPM ratio (pull-down/input)
GATGATTGTTCTCCCAGCTGATGAATTTTGTAAATCGAGTAAACAAATTTTCCTAATCTTTCTGTTCAAGCGCCATCTAC	1.5 RPM ratio (pull-down/input)
GATGATTGTTCTCCCAGCTGATGAATTAGCACCTTCGAGTAAACAAATTTTCCTAATCTTTCTGTTCAAGCGCCATCTAC	0.916 RPM ratio (pull-down/input)
GATGATTGTTCTCCCAGCTGATGAATTGCCGGGATCGAGTAAACAAATTTTCCTAATCTTTCTGTTCAAGCGCCATCTAC	0.867 RPM ratio (pull-down/input)
GATGATTGTTCTCCCAGCTGATGAATTTTCGAACTCGAGTAAACAAATTTTCCTAATCTTTCTGTTCAAGCGCCATCTAC	0.878 RPM ratio (pull-down/input)
GATGATTGTTCTCCCAGCTGATGAATTGCATCTATCGAGTAAACAAATTTTCCTAATCTTTCTGTTCAAGCGCCATCTAC	1.75 RPM ratio (pull-down/input)
GATGATTGTTCTCCCAGCTGATGAATTTAGAAGGTCGAGTAAACAAATTTTCCTAATCTTTCTGTTCAAGCGCCATCTAC	0.879 RPM ratio (pull-down/input)
GATGATTGTTCTCCCAGCTGATGAATTCGAACAGTCGAGTAAACAAATTTTCCTAATCTTTCTGTTCAAGCGCCATCTAC	0.783 RPM ratio (pull-down/input)
GATGATTGTTCTCCCAGCTGATGAATTCCTTGTGTCGAGTAAACAAATTTTCCTAATCTTTCTGTTCAAGCGCCATCTAC	0.961 RPM ratio (pull-down/input)
GATGATTGTTCTCCCAGCTGATGAATTCCTTGATTCGAGTAAACAAATTTTCCTAATCTTTCTGTTCAAGCGCCATCTAC	0.833 RPM ratio (pull-down/input)

Sequence	binding signal
GATGATTGTTCTCCCAGCTGATGAATTCCATCATTCGAGTAAACAAATTTTCCTAATCTTTCTGTTCAAGCGCCATCTAC	0.931 RPM ratio (pull-down/input)
GATGATTGTTCTCCCAGCTGATGAATTCAACAGCTCGAGTAAACAAATTTTCCTAATCTTTCTGTTCAAGCGCCATCTAC	0.893 RPM ratio (pull-down/input)
GATGATTGTTCTCCCAGCTGATGAATTATATTCATCGAGTAAACAAATTTTCCTAATCTTTCTGTTCAAGCGCCATCTAC	1.12 RPM ratio (pull-down/input)
GATGATTGTTCTCCCAGCTGATGAATTATTACCATCGAGTAAACAAATTTTCCTAATCTTTCTGTTCAAGCGCCATCTAC	1.22 RPM ratio (pull-down/input)
GATGATTGTTCTCCCAGCTGATGAATTACCCTAGTCGAGTAAACAAATTTTCCTAATCTTTCTGTTCAAGCGCCATCTAC	1.01 RPM ratio (pull-down/input)
GATGATTGTTCTCCCAGCTGATGAATTGTAGGGGTCGAGTAAACAAATTTTCCTAATCTTTCTGTTCAAGCGCCATCTAC	0.93 RPM ratio (pull-down/input)
GATGATTGTTCTCCCAGCTGATGAATTCCTGGAATCGAGTAAACAAATTTTCCTAATCTTTCTGTTCAAGCGCCATCTAC	0.855 RPM ratio (pull-down/input)
GATGATTGTTCTCCCAGCTGATGAATTTGGCAAGTCGAGTAAACAAATTTTCCTAATCTTTCTGTTCAAGCGCCATCTAC	0.823 RPM ratio (pull-down/input)
GATGATTGTTCTCCCAGCTGATGAATTGTCGAAATCGAGTAAACAAATTTTCCTAATCTTTCTGTTCAAGCGCCATCTAC	1.21 RPM ratio (pull-down/input)
GATGATTGTTCTCCCAGCTGATGAATTCACAACATCGAGTAAACAAATTTTCCTAATCTTTCTGTTCAAGCGCCATCTAC	2.11 RPM ratio (pull-down/input)
GATGATTGTTCTCCCAGCTGATGAATTCAACGGCTCGAGTAAACAAATTTTCCTAATCTTTCTGTTCAAGCGCCATCTAC	0.836 RPM ratio (pull-down/input)
GATGATTGTTCTCCCAGCTGATGAATTAATACGGTCGAGTAAACAAATTTTCCTAATCTTTCTGTTCAAGCGCCATCTAC	0.951 RPM ratio (pull-down/input)
GATGATTGTTCTCCCAGCTGATGAATTTTCGAATTCGAGTAAACAAATTTTCCTAATCTTTCTGTTCAAGCGCCATCTAC	0.988 RPM ratio (pull-down/input)
GATGATTGTTCTCCCAGCTGATGAATTCACTAGATCGAGTAAACAAATTTTCCTAATCTTTCTGTTCAAGCGCCATCTAC	0.873 RPM ratio (pull-down/input)
GATGATTGTTCTCCCAGCTGATGAATTTTCAAGTTCGAGTAAACAAATTTTCCTAATCTTTCTGTTCAAGCGCCATCTAC	0.899 RPM ratio (pull-down/input)
GATGATTGTTCTCCCAGCTGATGAATTCAGGGTTTCGAGTAAACAAATTTTCCTAATCTTTCTGTTCAAGCGCCATCTAC	0.847 RPM ratio (pull-down/input)
GATGATTGTTCTCCCAGCTGATGAATTGACGGGATCGAGTAAACAAATTTTCCTAATCTTTCTGTTCAAGCGCCATCTAC	0.943 RPM ratio (pull-down/input)
GATGATTGTTCTCCCAGCTGATGAATTTAAGTCATCGAGTAAACAAATTTTCCTAATCTTTCTGTTCAAGCGCCATCTAC	1.04 RPM ratio (pull-down/input)
GATGATTGTTCTCCCAGCTGATGAATTTGTAGATTCGAGTAAACAAATTTTCCTAATCTTTCTGTTCAAGCGCCATCTAC	1.09 RPM ratio (pull-down/input)
GATGATTGTTCTCCCAGCTGATGAATTGCAAACTTCGAGTAAACAAATTTTCCTAATCTTTCTGTTCAAGCGCCATCTAC	1.39 RPM ratio (pull-down/input)
GATGATTGTTCTCCCAGCTGATGAATTTGACGCGTCGAGTAAACAAATTTTCCTAATCTTTCTGTTCAAGCGCCATCTAC	1.01 RPM ratio (pull-down/input)
